{"source": "the supplement of paper PMC8728848", "binders": {"B1": {"name": "Clec49 (Caenorhabditis elegans) (protein)", "chain": "MTRLTLLLFGLLGAATAQTCNTGGIYNEQFNRCYQYFTAPAQFSFAEQQCNLLGGHLASVQNGQENALLQSNAANSFKRSNYSDYWIGATDLETSGTWKWTDPSVTFDYSNWQLGEPQSGSDCAIQDKGDGTWSAIGCTSYRPYVCVTPVIMTATCPPITTPIPTTCPTPAPCPIKQCVPSCDQGWTYFSPTDFCYRVYHGEKFNDAEASCVLLGGHLASIHSLTENTFVNNIASCGIKEGKYEHLAWIGMRKVGQDWVWTDGTPSDYFNWAPKQPDNPKKELCVQTAPDLSHDKWYENWNNLECNEVMRAYICKKASIHN"}}, "test_in_all_cases": "glycan array binding signal (z-score within array); higher = stronger binding", "conditions_in_all_cases": "glycan notation: IUPAC condensed, linker removed", "key": {"[1]": {"target": "Gal(b1-4)GlcNAc(b1-3)Gal(b1-4)GlcNAc(b1-3)Gal(b1-4)GlcNAc(b1-3)Gal(b1-4)GlcNAc(b1-2)Man(a1-3)[Gal(b1-4)GlcNAc(b1-3)Gal(b1-4)GlcNAc(b1-3)Gal(b1-4)GlcNAc(b1-3)Gal(b1-4)GlcNAc(b1-2)Man(a1-6)]Man(b1-4)GlcNAc(b1-4)[Fuc(a1-6)]GlcNAc", "procedure,_shortened": "(§1)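 Arrays were curated from the Consortium for Functional Glycomics database, 3228 in total, and kept only where the protein sequence was available. Binding is expressed as a within-array Z-score. This score was averaged across arrays of the same protein sequence at different concentrations or buffers and across linkers, and negative values can be read as non-binding.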"}, "[2]": {"target": "Gal(b1-4)GlcNAc(b1-3)Gal(b1-4)GlcNAc(b1-3)Gal(b1-4)GlcNAc(b1-3)Gal(b1-4)GlcNAc(b1-2)[Gal(b1-4)GlcNAc(b1-3)Gal(b1-4)GlcNAc(b1-3)Gal(b1-4)GlcNAc(b1-3)Gal(b1-4)GlcNAc(b1-6)]Man(a1-6)[Gal(b1-4)GlcNAc(b1-3)Gal(b1-4)GlcNAc(b1-3)Gal(b1-4)GlcNAc(b1-3)Gal(b1-4)GlcNAc(b1-2)Man(a1-3)]Man(b1-4)GlcNAc(b1-4)[Fuc(a1-6)]GlcNAc", "procedure,_shortened": "as §1"}, "[3]": {"target": "Gal(b1-4)GlcNAc(b1-3)Gal(b1-4)GlcNAc(b1-3)Gal(b1-4)GlcNAc(b1-3)Gal(b1-4)GlcNAc(b1-3)Gal(b1-4)GlcNAc(b1-2)Man(a1-3)[Gal(b1-4)GlcNAc(b1-3)Gal(b1-4)GlcNAc(b1-3)Gal(b1-4)GlcNAc(b1-3)Gal(b1-4)GlcNAc(b1-3)Gal(b1-4)GlcNAc(b1-2)Man(a1-6)]Man(b1-4)GlcNAc(b1-4)GlcNAc", "procedure,_shortened": "as §1"}, "[4]": {"target": "Gal(b1-4)GlcNAc(b1-3)Gal(b1-4)GlcNAc(b1-3)Gal(b1-4)GlcNAc(b1-3)Gal(b1-4)GlcNAc(b1-3)Gal(b1-4)GlcNAc(b1-2)Man(a1-3)[Gal(b1-4)GlcNAc(b1-3)Gal(b1-4)GlcNAc(b1-3)Gal(b1-4)GlcNAc(b1-3)Gal(b1-4)GlcNAc(b1-3)Gal(b1-4)GlcNAc(b1-2)Man(a1-6)]Man(b1-4)GlcNAc(b1-4)[Fuc(a1-6)]GlcNAc", "procedure,_shortened": "as §1"}, "[5]": {"target": "Gal(b1-4)GlcNAc(b1-3)Gal(b1-4)GlcNAc(b1-3)Gal(b1-4)GlcNAc(b1-3)Gal(b1-4)GlcNAc(b1-3)Gal(b1-4)GlcNAc(b1-2)[Gal(b1-4)GlcNAc(b1-3)Gal(b1-4)GlcNAc(b1-3)Gal(b1-4)GlcNAc(b1-3)Gal(b1-4)GlcNAc(b1-3)Gal(b1-4)GlcNAc(b1-6)]Man(a1-6)[Gal(b1-4)GlcNAc(b1-3)Gal(b1-4)GlcNAc(b1-3)Gal(b1-4)GlcNAc(b1-3)Gal(b1-4)GlcNAc(b1-3)Gal(b1-4)GlcNAc(b1-2)Man(a1-3)]Man(b1-4)GlcNAc(b1-4)[Fuc(a1-6)]GlcNAc", "procedure,_shortened": "as §1"}, "[6]": {"target": "Gal(b1-4)GlcNAc(b1-3)Gal(b1-4)GlcNAc(b1-3)Gal(b1-4)GlcNAc(b1-3)Gal(b1-4)GlcNAc(b1-3)Gal(b1-4)GlcNAc(b1-3)Gal(b1-4)GlcNAc(b1-2)Man(a1-3)[Gal(b1-4)GlcNAc(b1-3)Gal(b1-4)GlcNAc(b1-3)Gal(b1-4)GlcNAc(b1-3)Gal(b1-4)GlcNAc(b1-3)Gal(b1-4)GlcNAc(b1-3)Gal(b1-4)GlcNAc(b1-2)Man(a1-6)]Man(b1-4)GlcNAc(b1-4)GlcNAc", "procedure,_shortened": "as §1"}, "[7]": {"target": "Gal(b1-4)GlcNAc(b1-3)Gal(b1-4)GlcNAc(b1-3)GalNAc", "procedure,_shortened": "as §1"}, "[8]": {"target": "Gal(b1-4)GlcNAc(b1-3)Gal(b1-4)GlcNAc(b1-3)[Gal(b1-4)GlcNAc(b1-3)Gal(b1-4)GlcNAc(b1-6)]GalNAc", "procedure,_shortened": "as §1"}, "[9]": {"target": "Gal(b1-4)GlcNAc(b1-3)Gal(b1-4)GlcNAc(b1-6)[Gal(b1-3)]GalNAc", "procedure,_shortened": "as §1"}, "[10]": {"target": "Gal(b1-4)GlcNAc(b1-3)Gal(b1-4)[Fuc(a1-3)]GlcNAc(b1-3)Gal(b1-4)[Fuc(a1-3)]GlcNAc", "procedure,_shortened": "as §1"}, "[11]": {"target": "Gal(b1-4)GlcNAc(b1-3)GalNAc", "procedure,_shortened": "as §1"}, "[12]": {"target": "Gal(b1-4)GlcNAc(b1-3)[Fuc(a1-3)GlcNAc(b1-6)]Gal(b1-4)Glc", "procedure,_shortened": "as §1"}, "[13]": {"target": "Gal(b1-4)GlcNAc(b1-3)[Gal(b1-4)GlcNAc(b1-6)]Gal(b1-4)GlcNAc", "procedure,_shortened": "as §1"}, "[14]": {"target": "Gal(b1-4)GlcNAc(b1-3)[GlcNAc(b1-6)]Gal(b1-4)GlcNAc", "procedure,_shortened": "as §1"}, "[15]": {"target": "Gal(b1-4)GlcNAc(b1-6)Gal(b1-4)GlcNAc", "procedure,_shortened": "as §1"}, "[16]": {"target": "Gal(b1-4)GlcNAc(b1-6)GalNAc", "procedure,_shortened": "as §1"}, "[17]": {"target": "Gal(b1-4)GlcNAc(b1-6)[Gal(b1-3)]GalNAc", "procedure,_shortened": "as §1"}, "[18]": {"target": "Gal(b1-4)GlcNAc(b1-6)[Gal(b1-4)GlcNAc(b1-3)]GalNAc", "procedure,_shortened": "as §1"}, "Gal(b1-4)GlcNAc6P": {"target": "Gal(b1-4)GlcNAc6P", "procedure,_shortened": "as §1"}, "Gal(b1-6)Gal": {"target": "Gal(b1-6)Gal", "procedure,_shortened": "as §1"}, "Gal3S(b1-3)GalNAc": {"target": "Gal3S(b1-3)GalNAc", "procedure,_shortened": "as §1"}, "Gal3S(b1-3)GlcNAc": {"target": "Gal3S(b1-3)GlcNAc", "procedure,_shortened": "as §1"}, "[19]": {"target": "Gal3S(b1-3)[Fuc(a1-4)]GlcNAc", "procedure,_shortened": "as §1"}, "Gal3S(b1-4)Glc": {"target": "Gal3S(b1-4)Glc", "procedure,_shortened": "as §1"}, "Gal3S(b1-4)Glc6S": {"target": "Gal3S(b1-4)Glc6S", "procedure,_shortened": "as §1"}, "Gal3S(b1-4)GlcNAc": {"target": "Gal3S(b1-4)GlcNAc", "procedure,_shortened": "as §1"}, "[20]": {"target": "Gal3S(b1-4)[Fuc(a1-3)]Glc6S", "procedure,_shortened": "as §1"}, "[21]": {"target": "Gal3S(b1-4)[Fuc(a1-3)]GlcNAc", "procedure,_shortened": "as §1"}, "[22]": {"target": "Gal3S(b1-4)[Fuc(a1-3)]GlcNAc6S", "procedure,_shortened": "as §1"}, "Gal3S4S(b1-4)GlcNAc": {"target": "Gal3S4S(b1-4)GlcNAc", "procedure,_shortened": "as §1"}, "Gal3S6S(b1-4)GlcNAc": {"target": "Gal3S6S(b1-4)GlcNAc", "procedure,_shortened": "as §1"}, "Gal3S6S(b1-4)GlcNAc6S": {"target": "Gal3S6S(b1-4)GlcNAc6S", "procedure,_shortened": "as §1"}, "Gal4S(b1-4)GlcNAc": {"target": "Gal4S(b1-4)GlcNAc", "procedure,_shortened": "as §1"}, "Gal4S6S(b1-4)GlcNAc": {"target": "Gal4S6S(b1-4)GlcNAc", "procedure,_shortened": "as §1"}, "Gal6P(b1-4)GlcNAc": {"target": "Gal6P(b1-4)GlcNAc", "procedure,_shortened": "as §1"}, "Gal6S(b1-3)GlcNAc": {"target": "Gal6S(b1-3)GlcNAc", "procedure,_shortened": "as §1"}, "Gal6S(b1-3)GlcNAc6S": {"target": "Gal6S(b1-3)GlcNAc6S", "procedure,_shortened": "as §1"}, "Gal6S(b1-4)Glc": {"target": "Gal6S(b1-4)Glc", "procedure,_shortened": "as §1"}}, "note": "The list shows a part of the results."}
{"binder": "B1", "values": [{"measurement": "glycan array binding signal (z-score)", "setting": "[1]", "result": 0.849}, {"measurement": "glycan array binding signal (z-score)", "setting": "[2]", "result": 0.328}, {"measurement": "glycan array binding signal (z-score)", "setting": "[3]", "result": 0.133}, {"measurement": "glycan array binding signal (z-score)", "setting": "[4]", "result": -0.115}, {"measurement": "glycan array binding signal (z-score)", "setting": "[5]", "result": 0.068}, {"measurement": "glycan array binding signal (z-score)", "setting": "[6]", "result": 0.6}, {"measurement": "glycan array binding signal (z-score)", "setting": "[7]", "result": 1.52}, {"measurement": "glycan array binding signal (z-score)", "setting": "[8]", "result": 0.255}, {"measurement": "glycan array binding signal (z-score)", "setting": "[9]", "result": -0.331}, {"measurement": "glycan array binding signal (z-score)", "setting": "[10]", "result": -0.058}, {"measurement": "glycan array binding signal (z-score)", "setting": "[11]", "result": -0.045}, {"measurement": "glycan array binding signal (z-score)", "setting": "[12]", "result": -0.223}, {"measurement": "glycan array binding signal (z-score)", "setting": "[13]", "result": -0.404}, {"measurement": "glycan array binding signal (z-score)", "setting": "[14]", "result": -0.662}, {"measurement": "glycan array binding signal (z-score)", "setting": "[15]", "result": 0.803}, {"measurement": "glycan array binding signal (z-score)", "setting": "[16]", "result": -0.076}, {"measurement": "glycan array binding signal (z-score)", "setting": "[17]", "result": 0.61}, {"measurement": "glycan array binding signal (z-score)", "setting": "[18]", "result": -0.553}, {"measurement": "glycan array binding signal (z-score)", "setting": "Gal(b1-4)GlcNAc6P", "result": -0.471}, {"measurement": "glycan array binding signal (z-score)", "setting": "Gal(b1-6)Gal", "result": -0.558}, {"measurement": "glycan array binding signal (z-score)", "setting": "Gal3S(b1-3)GalNAc", "result": -0.362}, {"measurement": "glycan array binding signal (z-score)", "setting": "Gal3S(b1-3)GlcNAc", "result": -0.889}, {"measurement": "glycan array binding signal (z-score)", "setting": "[19]", "result": -0.107}, {"measurement": "glycan array binding signal (z-score)", "setting": "Gal3S(b1-4)Glc", "result": 0.865}, {"measurement": "glycan array binding signal (z-score)", "setting": "Gal3S(b1-4)Glc6S", "result": -0.313}, {"measurement": "glycan array binding signal (z-score)", "setting": "Gal3S(b1-4)GlcNAc", "result": -0.603}, {"measurement": "glycan array binding signal (z-score)", "setting": "[20]", "result": -0.488}, {"measurement": "glycan array binding signal (z-score)", "setting": "[21]", "result": -0.647}, {"measurement": "glycan array binding signal (z-score)", "setting": "[22]", "result": -0.271}, {"measurement": "glycan array binding signal (z-score)", "setting": "Gal3S4S(b1-4)GlcNAc", "result": -0.596}, {"measurement": "glycan array binding signal (z-score)", "setting": "Gal3S6S(b1-4)GlcNAc", "result": -0.612}, {"measurement": "glycan array binding signal (z-score)", "setting": "Gal3S6S(b1-4)GlcNAc6S", "result": 0.736}, {"measurement": "glycan array binding signal (z-score)", "setting": "Gal4S(b1-4)GlcNAc", "result": -0.522}, {"measurement": "glycan array binding signal (z-score)", "setting": "Gal4S6S(b1-4)GlcNAc", "result": -0.639}, {"measurement": "glycan array binding signal (z-score)", "setting": "Gal6P(b1-4)GlcNAc", "result": 0.217}, {"measurement": "glycan array binding signal (z-score)", "setting": "Gal6S(b1-3)GlcNAc", "result": -0.081}, {"measurement": "glycan array binding signal (z-score)", "setting": "Gal6S(b1-3)GlcNAc6S", "result": 0.716}, {"measurement": "glycan array binding signal (z-score)", "setting": "Gal6S(b1-4)Glc", "result": 0.093}]}
